Experimental data: PMC4336329 (PLoS ONE, 2015)
In all, about 310,000 compounds went through this assay and about 14,000 (4.5%) showed an effect of 50% or more. Effects have a minus sign here. The list shows a part of the results.

target: human ether-à-go-go-related gene (hERG) potassium channel (human, UniProt Q12809); experiment: primary screen, population patch clamp on CHO cells stably expressing hERG
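Further: peak tail current of the secondary pulse compared with the same well before compound.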

Chain of human ether-à-go-go-related gene (hERG) potassium channel (Q12809 whole entry, looked up): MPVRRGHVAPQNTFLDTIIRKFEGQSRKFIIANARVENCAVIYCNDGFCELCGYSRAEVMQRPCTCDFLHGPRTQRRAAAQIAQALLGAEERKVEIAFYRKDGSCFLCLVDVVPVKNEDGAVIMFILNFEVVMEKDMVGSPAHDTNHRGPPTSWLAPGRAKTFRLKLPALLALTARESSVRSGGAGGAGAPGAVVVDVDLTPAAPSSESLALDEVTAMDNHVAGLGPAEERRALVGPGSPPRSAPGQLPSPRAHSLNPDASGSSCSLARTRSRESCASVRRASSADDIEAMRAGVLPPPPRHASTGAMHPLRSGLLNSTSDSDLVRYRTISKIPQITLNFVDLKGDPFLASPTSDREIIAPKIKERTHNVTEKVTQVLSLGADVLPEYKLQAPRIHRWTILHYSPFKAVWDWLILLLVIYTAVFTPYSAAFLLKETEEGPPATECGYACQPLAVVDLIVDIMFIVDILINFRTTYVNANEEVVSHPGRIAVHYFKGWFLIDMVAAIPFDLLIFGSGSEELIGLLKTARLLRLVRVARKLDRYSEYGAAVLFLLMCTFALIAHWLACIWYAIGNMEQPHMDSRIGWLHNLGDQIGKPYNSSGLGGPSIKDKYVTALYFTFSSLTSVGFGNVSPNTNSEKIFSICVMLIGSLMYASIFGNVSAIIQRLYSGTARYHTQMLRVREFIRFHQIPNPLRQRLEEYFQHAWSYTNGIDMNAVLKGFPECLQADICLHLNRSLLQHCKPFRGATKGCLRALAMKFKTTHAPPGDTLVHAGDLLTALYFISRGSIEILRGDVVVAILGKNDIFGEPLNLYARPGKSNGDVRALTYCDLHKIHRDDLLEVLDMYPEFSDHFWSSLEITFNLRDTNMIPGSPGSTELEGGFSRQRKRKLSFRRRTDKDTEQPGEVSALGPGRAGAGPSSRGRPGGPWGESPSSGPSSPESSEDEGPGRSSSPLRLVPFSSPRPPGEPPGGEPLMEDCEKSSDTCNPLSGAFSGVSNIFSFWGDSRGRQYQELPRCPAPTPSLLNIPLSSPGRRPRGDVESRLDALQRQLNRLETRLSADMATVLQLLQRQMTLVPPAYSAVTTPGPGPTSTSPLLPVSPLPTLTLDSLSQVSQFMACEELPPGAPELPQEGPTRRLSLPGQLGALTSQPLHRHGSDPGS

Compound | hERG current change (%, negative = inhibition) at 10uM
Nc1c(Cl)cc(-c2csc(N3CCCC3c3nc4cc(Cl)c(N5CCCCC5)cc4n3CCOCCO)n2)cc1Cl (centres unmarked) | 15.3%
Cc1c(C(=O)NCc2ccco2)oc2ccccc12 | -6.97%
CSc1ccc(CCNC(=O)CCc2nnc3ccc(NCCCN4CCCC4=O)nn23)cc1 | -1.64%
COc1ccc(/C=C2\C(=N\O)C3CCN2CC3)cc1.Cl | 6.66%
O=C(CS(=O)(=O)c1ccccc1)Nc1nnc(Cc2ccccc2)s1 | 3.43%
CCCCN1c2cc(C)c(O)cc2C(C(=O)OCC)C1C (centres unmarked) | 13.7%
COc1ccc(CN(C)c2ncnc3sccc23)c(OC)c1OC | -15.6%
Cc1cccc(OCC(=O)Nc2cccc3nsnc23)c1 | 10.2%
COc1ccc(C2C(C#N)=C(N)SC(N)=C2C#N)cc1OC | 10.6%
CCCN(CC(=O)c1cc(C)n(C)c1C)S(=O)(=O)c1cccc(C(F)(F)F)c1 | -15.1%
CCCCCCCNC(=O)C1(CC2CC(c3cccc(Br)c3)=NO2)CCN(C(=O)Cc2ccc(F)cc2)CC1 (centres unmarked) | -7.08%
CCC(=O)Nc1ccc(C2=Nn3c(nnc3C(C)C)SC2)cc1.Cl | 21%
COc1ccc(CCNC(=O)c2cc3c(=O)n4ccccc4nc3n(CCCN3CCOCC3)c2=N)cc1OC | -75.1%
CCC(=O)N1c2ccccc2-c2nnc(SC)nc2OC1c1ccc(N(C)C)cc1 (centres unmarked) | -6.67%
CN(c1ccc(C(=O)O)cc1)S(=O)(=O)c1ccc(Cl)cc1 | 1.63%
CCN(CC)C(=O)c1cc(S(=O)(=O)N2CCCCC2)c[nH]1 | 23.5%
CC(C)OCCCN(CC(O)c1ccccc1)CC(O)c1ccccc1.O=C(O)C(=O)O (centres unmarked) | -10.1%
O=C(CN1CCCC1)NC(=O)NC1CCCC1 | 16.5%
COC(=O)C1=C(C(=O)OC)[C@@H]2N(C)c3ccccc3[C@@]23C[C@@H](C(=O)OC)N(C(=O)COCc2ccccc2)C3=N1 | -9.16%
Cc1ccc(NC(=O)c2ccccc2-c2ccc(C(F)(F)F)cc2)cc1S(=O)(=O)N1CCOCC1 | -8.45%
Cc1ccc(N2CC(C(=O)NCc3cccs3)CC2=O)cc1 (centres unmarked) | -12.8%
COC(=O)c1ccccc1NC(=O)Nc1ccc2c(c1)OCO2 | 10.1%

Compound | hERG current change (%, negative = inhibition) at 10uM
O=C(Nc1ccc2c(c1)OCO2)c1cc(-c2ccccc2Cl)on1 | 15.3%
O=C(Nc1cccc(S(=O)(=O)N2CCOCC2)c1)c1cnn2c(C(F)F)cc(-c3ccccc3)nc12 | 11.6%
c1ccc(-c2nnc(N3CCN(c4ccccc4)CC3)nc2-c2ccccc2)cc1 | 4.72%
CN1CCN(c2nc(C(N)=O)cc(-c3ccccc3)n2)CC1 | -44.1%
CCN(CC)P(=O)(c1nccn1C)N(CC)CC | 27.3%
O=C(Cn1cnc([N+](=O)[O-])c1)NC1CCCC1 | 8.33%
Fc1ccccc1CNC(=S)Nc1ccc(Cl)cc1 | -17.5%
N#Cc1nc(-c2ccc(OCc3ccccc3)cc2)oc1N1CCOCC1 | 10.4%
Cc1cc(OCC(=O)NCc2ccccn2)c2c(C)c(C)c(=O)oc2c1 | -11.2%
S=C(NCC(c1cccnc1)N1CCOCC1)NC1CCCCC1 (centres unmarked) | 3.84%
Cc1cc2nccc(-c3ccc(Cl)cc3Cl)n2n1 | 0.931%
CCN(Cc1cc2ccccc2[nH]c1=O)C(=O)c1cccc([N+](=O)[O-])c1 | -21.8%
COc1ccccc1N1CCN(C2CCCN(C(=O)CN3CCCC3=O)C2)CC1 (centres unmarked) | 15.4%
CN1CCCc2cc3c(C(F)(F)F)cc(=O)oc3nc21 | 12.9%
CC1(C)CC(=O)C(N=Nc2cccc([N+](=O)[O-])c2)=C(O)C1 | 3.25%
CCOC(=O)c1sc(NC(=O)CSc2nnnn2-c2ccc(C)cc2C)nc1C | 23.1%
Cn1cnc2cc(NCc3ccccc3Cl)ccc21 | -35%
O=C(Cc1cccc2ccccc12)NN1C(=O)CSC1=S | 16.2%
CSc1ccccc1NC(=O)CN(C)CC(=O)Nc1ccc(Cl)cc1[N+](=O)[O-] | -31.6%
Cc1ccc(S(=O)(=O)C(C#N)c2nc3ccccc3nc2N2CCN(C)CC2)cc1 (centres unmarked) | -13.1%
CCC(=O)Nc1ccc(-n2nnnc2SCC(=O)NNC(=O)c2ccco2)cc1 | 2%
CCOC(=O)C1=C(C)N(c2ccccc2)C(=O)/C1=C\c1ccco1 | 3.26%

Compound | hERG current change (%, negative = inhibition) at 10uM
COc1ccc(OCCn2cc(/C=N/NC(=O)c3ccncc3)c3ccccc32)cc1 | -15.3%
CCCc1ccc(S(=O)(=O)Nc2ccc(C)c(NS(C)(=O)=O)c2)cc1 | -6.71%
CCN(CC(=O)N1CCN(c2ccccc2)CC1)S(=O)(=O)c1ccc(C)cc1 | -12.8%
CN(C)c1nc2c(c(=O)[nH]c(=O)n2C)n1Cc1ccccc1Br | -0.479%
CCCCn1c(SCC(=O)Nc2nnc(C(C)C)s2)nc2c1c(=O)n(C)c(=O)n2C | -0.729%
Cc1cc(Nc2ccccc2)n(CCC#N)n1 | 9.52%
CC(Oc1ccc(Cl)cc1Cl)C(=O)N(C)c1ccccc1 (centres unmarked) | -11.4%
COc1ccc(Cl)cc1NC(=O)C/C(C)=N/NC(=O)CC#N | -1.42%
COc1ccc(-c2cc(C(=O)c3c(N)n(C)c(=O)n(C)c3=O)c3ccccc3n2)cc1OC | 3.71%
CCN(CC)C(=O)NC(c1ccc(C)c(F)c1)C(Cl)(Cl)Cl (centres unmarked) | 9.8%
COc1ccccc1C(CCN(Cc1ccccc1)C(C)=O)c1ccco1 (centres unmarked) | -25.5%
Cn1c(=O)c2c(O)c(Cc3ccccc3)c(=O)n(C)c2n(C)c1=O | -3.06%
Cc1cc(C)cc(NC(=O)C(c2ccccc2)N2CCN(CC(=O)NC3CC3)CC2)c1 (centres unmarked) | -28.3%
COc1ccc(NC(=O)NCc2cccnc2)cc1 | -1.56%
CN(CC(=O)Nc1ccccc1C(F)(F)F)C(=O)Cn1c(=O)oc2ccccc21 | 7.61%
Cc1ccc(C)c(SCC(=O)NCc2ccco2)c1 | 2.13%
CCOC(=O)C1=C(c2ccccc2)NC(=S)NC1c1cccc([N+](=O)[O-])c1 (centres unmarked) | 12.8%
CC(c1ccccn1)N(C)C(=O)c1ccc2nc(Cc3ccccc3F)oc2c1 (centres unmarked) | 1.56%
COc1cccc(OC)c1C(=O)Nc1cc(C)on1 | 7.22%
Cc1nn(-c2ccc(F)cc2)c(Cl)c1C(=O)OC(C)C(=O)N(C)C1CCCCC1 (centres unmarked) | -59%
Cc1cc(NC(=O)CCC(=O)N(CC(=O)NC2CCCC2)c2ccc(C)c(F)c2)no1 | 4.13%
COc1ccc(CCNC(=O)c2cccs2)cc1OC | 30.7%

Compound | hERG current change (%, negative = inhibition) at 10uM
COc1cccc(CN2CCNC(=O)C2CC(=O)N(C)CC2CCOCC2)c1 (centres unmarked) | 15%
Fc1ccc(CN2CCN(c3ncnc4scc(-c5ccccc5)c34)CC2)cc1 | -39.9%
CCn1c(SCC(=O)Nc2cc(Cl)ccc2OC)nnc1C1CC1 | -5.66%
COC(=O)c1ccc(Sc2ccc(Cl)cc2)c(N)c1 | -2.44%
CC1=CC(C)(C)N(C(=O)CSc2nnc(-c3ccccc3)o2)c2ccc(C)cc21 | 6.56%
O=C1CC(c2ccco2)CC(O)=C1C=NCCN1CCN(C(=S)Nc2ccccc2)CC1 (centres unmarked) | -54.1%
O=C(Oc1ccc(Cl)cc1)c1ccc(COC(=O)c2cnccn2)cc1 | 14.9%
Cc1ccc(NC(=O)c2cc(-c3ccc4c(c3)OCO4)on2)cc1C | 8.36%
CCOc1ccccc1NC(=O)C(Sc1nnc2ccccn12)c1ccccc1 (centres unmarked) | -12.5%
O=C(Nc1cccnc1)c1cccc(-c2cc3ccccc3oc2=O)c1 | 14.5%
Cn1c(=O)c2c(ncn2CC(=O)OCC(=O)Nc2ccccc2)n(C)c1=O | 1.9%
CCn1c2ccccc2c2nnc(SCC(=O)N(C)C3CCS(=O)(=O)C3)nc21 (centres unmarked) | -21%
CCNC(=S)N/N=C/c1ccc(OCc2ccc(C(=O)OC)cc2)cc1 | -10.3%
COCc1c(C(=O)NCC2COc3ccccc3O2)oc2ccccc12 (centres unmarked) | -30.1%
COc1ccccc1NC(=O)N(C1CCCC1)C1CCN(C(C)=O)CC1 | -11.9%
COc1cc2c(cc1C1C(C#N)=C(N)OC3=C1C(=O)CC(C)(C)C3)OCO2 (centres unmarked) | -9.92%
CCOc1ccc(S(=O)(=O)NCCC(=O)N(C)CC(=O)Nc2ccc(OC)cc2)cc1 | 7.12%
O=C(CCCn1c(SCc2cccc(F)c2)nc2ccccc2c1=O)NCC1CCCO1 (centres unmarked) | 8.35%
Cc1cc2cc(CNC(=O)c3cccc([N+](=O)[O-])c3)ccc2n1C | 6.74%
Cc1cc(/C=C2/C(=O)NC(=O)N(Cc3ccco3)C2=O)c(C)n1-c1ccc(C(=O)O)cc1 | 10.3%
